Results are given in words; binding and its absence hold for the method and conditions named. For part of these data: Binding seen in cells or lysates may run through a third protein. Some results given as binding are weak or reduced against the parent protein; the word gives no strength. For part of these data: Sequences can lack the tags named with a protein.
B1: Ost1 fused to NubG (negative control prey) (protein, UniProt P41543 23-476)
chain: AQYEPPATWENVDYKRTIDVSNAYISETIEITIKNIASEPATEYFTAFESGIFSKVSFFSAYFTNEATFLNSQLLANSTTAPGDDGESEIRYGIIQFPNAISPQEEVSLVIKSFYNTVGIPYPEHVGMSEEQHLLWETNRLPLSAYDTKKASFTLIGSSSFEEYHPPNDESLLGKANGNSFEFGPWEDIPRFSSNETLAIVYSHNAPLNQVVNLRRDIWLSHWASTIQFEEYYELTNKAAKLSKGFSRLELMKQIQTQNMRQTHFVTVLDMLLPEGATDHYFTDLVGLVSTSHAERDHFFIRPRFPIFGGWNYNFTVGWTNKLSDFLHVSSGSDEKFVASIPILNGPPDTVYDNVELSVFLPEGAEIFDIDSPVPFTNVSIETQKSYFDLNKGHVKLTFSYRNLISQVANGQVLIKYDYPKSSFFKKPLSIACYIFTALMGVFVLKTLNMNVTN
B2: Fur4 fused to NubG (negative control prey) (protein, UniProt P05316 1-633)
chain: MPDNLSLHLSGSSKRLNSRQLMESSNETFAPNNVDLEKEYKSSQSNITTEVYEASSFEEKVSSEKPQYSSFWKKIYYEYVVVDKSILGVSILDSFMYNQDLKPVEKERRVWSWYNYCYFWLAECFNINTWQIAATGLQLGLNWWQCWITIWIGYGFVGAFVVLASRVGSAYHLSFPISSRASFGIFFSLWPVINRVVMAIVWYSVQAYIAATPVSLMLKSIFGKDLQDKIPDHFGSPNATTYEFMCFFIFWAASLPFLLVPPHKIRHLFTVKAVLVPFASFGFLIWAIRRAHGRIALGSLTDVQPHGSAFSWAFLRSLMGCMANFSTMVINAPDFSRFSKNPNSALWSQLVCIPFLFSITCLIGILVTAAGYEIYGINYWSPLDVLEKFLQTTYNKGTRAGVFLISFVFAVAQLGTNISANSLSCGTDMSAIFPKFINIKRGSLFCAAMALCICPWNLMATSSKFTMALSAYAIFLSSIAGVVCSDYFVVRRGYIKLTHIYSHQKGSFYMYGNRFGINWRALAAYLCGVAPCLPGFIAEVGAPAIKVSDGAMKLYYLSYWVGYGLSFSSYTALCYFFPVPGCPVNNIIKDKGWFQRWANVDDFEEEWKDTIERDDLVDDNISVYEHEHEKTFI
B3: Bzz1, full-length prey in expression vector BG1805 (His6-HA-3C-ZZ) (protein, UniProt P38822 1-633)
chain: MSADLSIGNEIKDSFKETHKWVQNNLKWLKDIEQFYRERAKLEKDYSERLSRLSAEYFNKKSSTSVPISVGDTPTTTPGSIEAAGVVAWNEILSQTDMISKDHDQLSTDFENHVANQLSGLFTKLDMTLSKINGFNNDMVNKKDNIYHELEKAKKDYDEACSTMEMARNRYTKASNDRNKKKLDEKEMEMNKCKNEYLIKINQANRTKDKYYFQDVPEVLDLLQDVNEAKTLFLNDLWLKAASVENDLGANVSKRLQAANSVVKQNKPSLNTAIFIKHNLKNWKEPQDFVYKPSPVWHDDEKFAVPSSLEVEDLRIKLAKAENDYNSLQDKTQNELSKLSTLNKIKHEMKTNEDNINATKFYDTLKEYLNVVSPFTSHETLKLQAEVQIESIQNNVPEEYDLSTDNIDLSKTKKKSGIFSKFKHNILNVDSKPSSGGSTGNGNGGPLHITSLFNTSRRTRLGSAPNNAGEDSDNNSIRTTSTNNTKKTTQNSSDDGKNKVLYAYVQKDDDEITITPGDKISLVARDTGSGWTKINNDTTGETGLVPTTYIRISSAATVKANDRGPAPEVPPPRRSTLPVRTMEAIYAYEAQGDDEISIDPGDIITVIRGDDGSGWTYGECDGLKGLFPTSYCK
B4: Fba1, full-length prey in expression vector BG1805 (His6-HA-3C-ZZ) (protein, UniProt P14540 1-359)
chain: MGVEQILKRKTGVIVGEDVHNLFTYAKEHKFAIPAINVTSSSTAVAALEAARDSKSPIILQTSNGGAAYFAGKGISNEGQNASIKGAIAAAHYIRSIAPAYGIPVVLHSDHCAKKLLPWFDGMLEADEAYFKEHGEPLFSSHMLDLSEETDEENISTCVKYFKRMAAMDQWLEMEIGITGGEEDGVNNENADKEDLYTKPEQVYNVYKALHPISPNFSIAAAFGNCHGLYAGDIALRPEILAEHQKYTREQVGCKEEKPLFLVFHGGSGSTVQEFHTGIDNGVVKVNLDTDCQYAYLTGIRDYVLNKKDYIMSPVGNPEGPEKPNKKFFDPRVWVREGEKTMGAKITKSLETFRTTNTL
B5: Rpl5, full-length prey in expression vector BG1805 (His6-HA-3C-ZZ) (protein, UniProt P26321 1-297)
chain: MAFQKDAKSSAYSSRFQTPFRRRREGKTDYYQRKRLVTQHKAKYNTPKYRLVVRFTNKDIICQIISSTITGDVVLAAAYSHELPRYGITHGLTNWAAAYATGLLIARRTLQKLGLDETYKGVEEVEGEYELTEAVEDGPRPFKVFLDIGLQRTTTGARVFGALKGASDGGLYVPHSENRFPGWDFETEEIDPELLRSYIFGGHVSQYMEELADDDEERFSELFKGYLADDIDADSLEDIYTSAHEAIRADPAFKPTEKKFTKEQYAAESKKYRQTKLSKEERAARVAAKIAALAGQQ
B6: Tah11, full-length prey in expression vector BG1805 (His6-HA-3C-ZZ) (protein, UniProt P47112 1-604)
chain: MSGTANSRRKEVLRVPVIDLNRVSDEEQLLPVVRAILLQHDTFLLKNYANKAVLDALLAGLTTKDLPDTSQGFDANFTGTLPLEDDVWLEQYIFDTDPQLRFDRKCRNESLCSIYSRLFKLGLFFAQLCVKSVVSSAELQDCISTSHYATKLTRYFNDNGSTHDGADAGATVLPTGDDFQYLFERDYVTFLPTGVLTIFPCAKAIRYKPSTMATTDNSWVSIDEPDCLLFHTGTLLARWSQGMHTTSPLQIDPRANIVSLTIWPPLTTPISSKGEGTIANHLLEQQIKAFPKVAQQYYPRELSILRLQDAMKFVKELFTVCETVLSLNALSRSTGVPPELHVLLPQISSMMKRKIVQDDILKLLTIWSDAYVVELNSRGELTMNLPKRDNLTTLTNKSRTLAFVERAESWYQQVIASKDEIMTDVPAFKINKRRSSSNSKTVLSSKVQTKSSNANALNNSRYLANSKENFMYKEKMPDSQANLMDRLRERERRSAALLSQRQKRYQQFLAMKMTQVFDILFSLTRGQPYTETYLSSLIVDSLQDSNNPIGTKEASEILAGLQGILPMDISVHQVDGGLKVYRWNSLDKNRFSKLLQIHKSKQQD
B7: Trx2, full-length prey in expression vector BG1805 (His6-HA-3C-ZZ) (protein, UniProt P22803 1-104)
chain: MVTQLKSASEYDSALASGDKLVVVDFFATWCGPCKMIAPMIEKFAEQYSDAAFYKLDVDEVSDVAQKAEVSSMPTLIFYKGGKEVTRVVGANPAAIKQAIASNV
B8: Ape2, full-length prey in expression vector BG1805 (His6-HA-3C-ZZ) (protein, UniProt P32454 53-952)
chain: NVMWKQSKLTPPRFVKIMNRRPLFTETSHACAKCQKTSQLLNKTPNREILPDNVVPLHYDLTVEPDFKTFKFEGSVKIELKINNPAIDTVTLNTVDTDIHSAKIGDVTSSEIISEEEQQVTTFAFPKGTMSSFKGNAFLDIKFTGILNDNMAGFYRAKYEDKLTGETKYMATTQMEPTDARRAFPCFDEPNLKASFAITLVSDPSLTHLSNMDVKNEYVKDGKKVTLFNTTPKMSTYLVAFIVAELKYVESKNFRIPVRVYATPGNEKHGQFAADLTAKTLAFFEKTFGIQYPLPKMDNVAVHEFSAGAMENWGLVTYRVVDLLLDKDNSTLDRIQRVAEVVQHELAHQWFGNLVTMDWWEGLWLNEGFATWMSWYSCNEFQPEWKVWEQYVTDTLQHALSLDSLRSSHPIEVPVKKADEINQIFDAISYSKGASLLRMISKWLGEETFIKGVSQYLNKFKYGNAKTEDLWDALADASGKDVRSVMNIWTKKVGFPVISVSEDGNGKITFRQNRYLSTADVKPDEDKTIYPVFLALKTKNGVDSSVVLSERSKTIELEDPTFFKVNSEQSGIYITSYTDERWAKLGQQADLLSVEDRVGLVADVKTLSASGYTSTTNFLNLVSKWNNEKSFVVWDQIINSISSMKSTWLFEPKETQDALDNFTKQLISGMTHHLGWEFKSSDSFSTQRLKVTMFGAACAARDADVEKAALKMFTDYCSGNKEAIPALIKPIVFNTVARVGGAENYEKVYKIYLDPISNDEKLAALRSLGRFKEPKLLERTLGYLFDGTVLNQDIYIPMQGMRAHQEGVEALWNWVKKNWDELVKRLPPGLSMLGSVVTLGTSGFTSMQKIDEIKKFFATKSTKGFDQSLAQSLDTITSKAQWVNRDRDVVNKYLKENGYY

Sequences of proteins named here, by UniProt entry; tags and fusion partners are left off.
UniProt P08964: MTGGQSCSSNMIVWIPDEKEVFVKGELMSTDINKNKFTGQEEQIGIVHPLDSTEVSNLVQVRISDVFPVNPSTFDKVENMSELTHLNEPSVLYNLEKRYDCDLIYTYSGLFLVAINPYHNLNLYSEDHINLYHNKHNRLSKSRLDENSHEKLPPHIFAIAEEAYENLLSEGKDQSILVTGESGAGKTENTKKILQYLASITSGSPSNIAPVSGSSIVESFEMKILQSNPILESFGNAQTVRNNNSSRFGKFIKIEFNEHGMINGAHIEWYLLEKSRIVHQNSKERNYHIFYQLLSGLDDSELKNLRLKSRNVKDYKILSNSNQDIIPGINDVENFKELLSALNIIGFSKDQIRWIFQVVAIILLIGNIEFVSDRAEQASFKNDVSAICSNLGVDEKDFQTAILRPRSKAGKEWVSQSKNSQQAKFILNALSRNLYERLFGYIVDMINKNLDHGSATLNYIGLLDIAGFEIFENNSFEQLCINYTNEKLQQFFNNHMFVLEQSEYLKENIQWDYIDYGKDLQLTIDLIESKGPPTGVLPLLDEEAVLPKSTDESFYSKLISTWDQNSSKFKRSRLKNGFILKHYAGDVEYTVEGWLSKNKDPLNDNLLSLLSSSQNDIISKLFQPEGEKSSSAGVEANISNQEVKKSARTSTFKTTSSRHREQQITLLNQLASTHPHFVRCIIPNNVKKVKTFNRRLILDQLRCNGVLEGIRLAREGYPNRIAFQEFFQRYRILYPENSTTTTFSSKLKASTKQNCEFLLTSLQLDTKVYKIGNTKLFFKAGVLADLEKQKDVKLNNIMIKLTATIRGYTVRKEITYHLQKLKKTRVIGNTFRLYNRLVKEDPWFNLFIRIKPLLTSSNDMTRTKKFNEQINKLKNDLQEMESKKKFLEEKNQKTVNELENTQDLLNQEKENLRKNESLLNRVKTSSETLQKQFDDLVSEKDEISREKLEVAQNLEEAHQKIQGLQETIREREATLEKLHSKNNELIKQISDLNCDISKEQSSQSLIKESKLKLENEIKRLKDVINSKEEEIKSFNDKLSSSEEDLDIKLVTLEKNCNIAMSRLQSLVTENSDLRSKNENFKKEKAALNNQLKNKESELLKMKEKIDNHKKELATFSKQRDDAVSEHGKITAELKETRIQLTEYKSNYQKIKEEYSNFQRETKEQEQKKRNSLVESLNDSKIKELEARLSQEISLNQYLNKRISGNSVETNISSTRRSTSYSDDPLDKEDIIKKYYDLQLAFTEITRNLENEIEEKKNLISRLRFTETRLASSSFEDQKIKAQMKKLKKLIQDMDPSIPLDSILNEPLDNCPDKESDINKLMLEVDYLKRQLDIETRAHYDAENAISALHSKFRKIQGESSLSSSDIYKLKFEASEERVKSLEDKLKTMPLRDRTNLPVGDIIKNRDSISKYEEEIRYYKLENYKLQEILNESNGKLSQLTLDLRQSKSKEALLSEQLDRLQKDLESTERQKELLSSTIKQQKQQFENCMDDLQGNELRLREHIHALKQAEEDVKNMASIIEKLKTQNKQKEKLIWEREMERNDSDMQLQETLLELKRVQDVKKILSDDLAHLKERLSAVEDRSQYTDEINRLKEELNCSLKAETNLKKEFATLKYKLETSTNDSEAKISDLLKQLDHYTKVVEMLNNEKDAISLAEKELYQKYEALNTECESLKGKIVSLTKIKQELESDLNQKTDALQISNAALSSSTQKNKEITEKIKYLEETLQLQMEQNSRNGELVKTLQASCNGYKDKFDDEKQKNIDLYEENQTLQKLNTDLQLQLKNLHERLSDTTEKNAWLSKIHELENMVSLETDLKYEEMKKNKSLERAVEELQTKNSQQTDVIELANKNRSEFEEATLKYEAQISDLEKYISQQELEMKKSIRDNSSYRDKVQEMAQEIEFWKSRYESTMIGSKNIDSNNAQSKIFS

Each molecule was assayed against Myo1p bait with iMYTH tag (Cub-LexA-VP16) integrated at the C-terminus (S. cerevisiae) (UniProt P08964) (assay: two-hybrid; iMYTH NubG/I self-activation test: Myo1p L40 L2 strain transformed with control prey plasmids, serial dilutions spotted on SD–W and SD–WH).
B1 was tested, and the binding was “no binding”. For B2, the binding was “no binding”.

The molecules below were run against Myo1-TAP (TAP epitope fused to the Myo1p C-terminus) (S. cerevisiae) (UniProt P08964) (assay: co-IP; Myo1-TAP captured from yeast lysate on calmodulin beads by its calmodulin-binding peptide (IPLB buffer with 1% Triton-X100, 2 hr at 4°, six washes); BG1805 prey detected by anti-HA western blot).
With B3 the binding was “binds”. For B4, the binding was “binds”. For B5, the binding was “binds”. B6 was tested, and the binding was “binds”. With B7 the binding was “binds”. In the case of B8, the binding is reported as “binds”.

Target: Myo1-TAP (TAP epitope fused to the Myo1p C-terminus) (S. cerevisiae) (UniProt P08964)
Assay: as above
Remark: another data set of the same source
For “Act1p, ACT1 gene cloned in the prey plasmid BG1805 (His6-HA-3C-ZZ) (from UniProt P60010 1-375)”, the binding was “binds”.

Source: article PMC4856097
